Measurements published in PubChem BioAssay AID1794842 (National Center for Advancing Translational Sciences (NCATS), 2023).
The campaign covered roughly 2,800 compounds. Fewer than 10 were called active. Calls follow the shape of the dose curve; as a rule, active = well fitted curve in the direction sought with a large enough effect; inconclusive = small, poorly fitted or top-dose-only effect, or another doubt; inactive = no such curve, though single readings can be large or run the other way. The list shows a part of the results.

target: Metallo-beta-lactamase type 2 (Klebsiella pneumoniae) (UniProt C7C422); experiment: qHTS to identify inhibitors of the New Delhi Metallo-beta-lactamase (NDM): Meropenem screen against the machine-based learning selections.; also: % of control where 0% means no effect; details: Purified NDM-1, meropenem hydrolysis, absorbance 300 nm; at 38.4 µM (top of the series) unless noted
Chain of UniProt C7C422 (C7C422 whole entry, looked up): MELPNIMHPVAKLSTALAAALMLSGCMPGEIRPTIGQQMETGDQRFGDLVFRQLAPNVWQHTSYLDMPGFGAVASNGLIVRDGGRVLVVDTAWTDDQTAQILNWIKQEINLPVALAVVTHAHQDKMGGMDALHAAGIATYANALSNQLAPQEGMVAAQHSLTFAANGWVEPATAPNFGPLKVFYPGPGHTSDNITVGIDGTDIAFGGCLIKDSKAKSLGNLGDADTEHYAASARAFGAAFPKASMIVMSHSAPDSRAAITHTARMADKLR
In short: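 Hydrolysis by 2 nM NDM-1 was followed by absorbance after >30 min compound preincubation in HEPES pH 7.0 buffer with 1 uM Zn2SO4. For nitrocefin (16.7 uM, 15 min, 485 nm) and meropenem (50 uM, 30 min, 300 nm), each substrate ran on separate plates.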

| SMILES | activity change, negative = inhibition |
| --- | --- |
| OCc1cccc(-c2ccc3ncc(Nc4ccccc4Cl)n3n2)c1 | inactive: 33.7% [at 57.5 µM] |
| CC(C)(CC(=O)O)CC(=O)N1CCN2C(=O)N(CCc3cccs3)C(=O)[C@H]2C1 | inactive: 2.11% [at 57.5 µM] |
| CCc1[nH]nc(-c2nc(C3CC3)nn2-c2ccc(S(N)(=O)=O)cc2)c1C | inactive: -3.48% |
| COC(=O)[C@@H](Cc1cccnc1)NC(=O)[C@H]1CN(C(=O)Nc2ccccc2)CCN1S(=O)(=O)c1ccccc1 | inactive: 2.46% |
| O=C(N[C@@H]1COCC[C@@H]1OCc1ccccc1)c1nc2ncccc2[nH]1 | inactive: 26.5% |
| Cn1ccc2c(C(=O)NCCc3cnc[nH]3)nc(-c3cccc(CO)c3)cc21 | inactive: 30% [at 57.5 µM] |
| Cc1ncc2c(c1CNC(=O)CCn1c(=O)[nH]c3ccccc31)CCNC2 | inactive: 20.6% |
| Cc1ccccc1-c1cnc2[nH]cc(CC(=O)NCc3ccco3)c2c1 | inactive: 2.07% [at 57.5 µM] |
| COCC1CN(C(C)=O)CC12CCN(Cc1cccc(C#N)c1)CC2 (centres undefined) | inactive: 0.783% |
| CN1Cc2ccc(NCc3ccccc3)nc2C(C)(C(=O)NCCc2cnc[nH]2)C1 (centres undefined) | inactive: 7.8% [at 57.5 µM] |
| Cc1cc(C(=O)N[C@@H]2CCC[C@@H](C(=O)N3CCN(C)CC3)CC(=O)N(C)C2)no1 | inactive: 1.85% [at 57.5 µM] |
| C[C@]1(O)CCN(C(=O)CC(c2ccccc2)c2ccccc2)C[C@@H]1O | inactive: 0.134% |
| Cc1ccc(S(=O)(=O)N2C[C@@H]3OCC(=O)N(Cc4ccc(OC(F)(F)F)cc4)[C@@H]3C2)cc1 | inactive: -1.95% |
| COc1ccc(CN2Cc3[nH]cnc3C[C@H]2C(=O)NCc2ccco2)cc1 | inactive: 7.49% [at 57.5 µM] |
| CCS(=O)(=O)N1CCC(CC(=O)NCc2ccccc2)C1 (centres undefined) | inactive: -1.58% |
| CNC(=O)N1CCOc2ccc(CCC(=O)NCC3CC3)cc2C1 | inactive: 0.125% |
| Cn1ccnc1CN1C[C@@H](F)[C@@H](OCc2nc3ccc(C(F)(F)F)cc3[nH]2)C1 | inactive: 7.16% [at 57.5 µM] |
| O=C(c1cc2cn(C3CC3)cc2s1)N1CCc2ccccc2C1 | inactive: 6.46% |
| COc1ncccc1C(=O)N1CCc2c(nc(-c3cccnc3)[nH]c2=O)C1 | inactive: 3.18% |
| O=C(Nc1ccc([C@H]2OCC(=O)N(Cc3cccnc3)[C@@H]2CO)cc1)c1ccnc(Cl)c1 | inactive: 3.73% |

| SMILES | activity change, negative = inhibition |
| --- | --- |
| CC(=O)NC1CCN(Cc2nc(-c3sccc3C)oc2C)CC1 | inactive: 0.509% |
| Cc1ccc(C(=O)N2CCOC(c3ccc(Cl)c(Cl)c3)C2)c(=O)n1C (centres undefined) | inactive: -1.18% |
| O=C(O)c1cccc(-c2n[nH]c3c2CC(=O)N(CCOc2ccccc2)C3)c1 | inactive: 8.03% [at 57.5 µM] |
| Cc1oc(C(O)c2ccccc2F)nc1C(=O)Nc1ccccc1C(N)=O (centres undefined) | inactive: 5.65% [at 57.5 µM] |
| Cc1ccoc1-c1nc2ccncc2[nH]1 | inactive: 19.5% [at 76.7 µM] |
| O=C1CCCN1CCCN1C(=O)[C@H]2CN(Cc3ccc(F)c(Cl)c3)C[C@H]2C1=O | inactive: -0.265% |
| COCCN1C(=O)[C@@H]2C[C@@H](CN2C(=O)NCc2ccccc2)Oc2ccccc21 | inactive: 0.0797% [at 57.5 µM] |
| COc1cccc(CC(=O)NC2CCN(c3cnn(C)c(=O)c3)CC2)c1 | inactive: 5.15% |
| CC1=C[C@@H](CC#N)[C@H](C(C)C)C[C@H]1CC(=O)NC1CC1 | inactive: -1.03% [at 76.7 µM] |
| CN(CC1CCOC1)C(=O)Nc1cccc(Br)c1 (centres undefined) | inactive: -0.357% |
| C=CCN(C)C(=O)[C@@H](C)C1CC[C@@]2(C)Cc3sc(-c4cccnc4)nc3[C@@H](C)[C@@H]2[C@H]1O (some centres undefined) | inactive: 9.88% [at 57.5 µM] |
| COc1ccc(C(=O)N2CCc3ccc(C(=O)O)cc32)cc1 | inactive: 6.76% |
| O=C(c1ccc(N2CCC(NCC(c3ccccc3)c3ccccc3)CC2)cc1)N1CCCC(O)C1 (centres undefined) | inactive: -1.88% |
| c1cc(N2CCOCC2)ncc1-c1noc([C@@H]2CCCN2C2CCOCC2)n1 | inactive: 33.7% [at 57.5 µM] |
| COCC1(c2nc(C3CCOCC3)nn2-c2ccccc2)CCC1 | inactive: 0.524% |
| CN(Cc1ccccc1)C(=O)[C@@H]1Cc2nc[nH]c2CN1C(=O)CC(C)(C)CC(=O)O | inactive: 22.3% [at 57.5 µM] |
| CN(CC1CCOCC1)C(=O)Nc1ccc(Cl)cc1 | inactive: -1.44% |
| Cc1ccc(NC(=O)N2CCCC2c2nncn2C2CCCC2)cc1F (centres undefined) | inactive: -1.18% |
| COc1cccc(-c2cc(C(=O)NCCOc3ccccc3)[nH]n2)c1 | inactive: 1% |
